# Measurements: PubChem BioAssay (NCI)
# More than one record can exist for a structure, and the calls need not agree.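 Note: values are percent growth. 100 is the growth of untreated cells, values between 100 and 0 indicate rising inhibition; between -100 and 0 indicates cell death.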 Certain results were filed several times, with different values. The list is limited to them. The calls were made as follows: active = growth percent below 10; inactive = the rest. An entry can have further records. These are repeated runs of one drug, at the concentration stated with the values; each value is one run. Counts like (3×) count equal records among those shown.
# System: NCI-H23 lung
# Assay: NCI-60 one-dose screen, 48 h (100 = growth as untreated, 0 = no growth, -100 = all killed)
# Conditions: 0.25 µM
structure (smiles),measurement,setting,value
COc1cccc2c1C(=O)c1c(O)c3c(c(O)c1C2=O)C[C@@](O)(C(=O)CO)C[C@@H]3OC1CC(N)C(O)C(C)O1 (stereo not given in full),growth,runs of 2006,"inactive: 22.2%, 40.6%"
same,growth,runs of 2007,"inactive: 14.9, 34.6 (2×), 40.5 (2×), 35.9, 43.7 (2×), 30.6 (2×), 40.1 (2×), 41.4, 41.9 (2×), 39.5 (2×), 46.5, 43.4, 44.9, 47.1, 42.8, 36.8, 24.3, 46.9 (2×), 50, 48.8, 30.1, 41.8, 58.4, 33.5, 28.2, 51.7 (2×), 29.7, 36.6, 66, 56.4, 45, 28.9% and active: 8.02%, 5.16%"
same,growth,runs of 2008,"inactive: 47.1, 35.2 (2×), 45.2, 30.6 (2×), 42.3 (2×), 47.4, 28.5, 35.6, 44.1, 45.7, 43.5, 46.4, 51.1, 60.3, 22.8, 33.1, 35 (2×), 32, 36.3, 16.6, 22.4, 10.1, 23.7, 36.6, 31.2, 101, 24.3, 33.2, 50, 32.5, 48.4, 48.6, 33.8, 15, 30.8, 50.2, 46.7, 43.3, 36, 37.6, 43.7, 58.9, 57.5, 42.5, 52.4, 43, 42.8, 48.9% and active: 6.26%"
same,growth,runs of 2009,"inactive: 41.7 (2×), 16.3, 21.7, 29.3 (2×), 35.3, 36.6, 36.1, 43.3, 31.9, 41.8, 40.6, 43.5, 33.3, 43, 20.3 (2×), 11.5, 18, 22.5, 29.9, 21.5, 23.9, 14.2, 23.3, 26.2, 28.8, 34.3, 25.9, 23.8, 40.5, 24.5, 24.6, 32.1 (2×), 27.7, 27.1, 18.9 (2×), 27.2, 17.6, 30.2, 29.1 (2×), 22.2, 15.8, 33.8, 16.7, 16.1, 31.2, 39, 23.7, 56.3, 37.8, 39.6, 38.7, 51.2, 30.3, 42.6, 39.4, 55.9, 52.5, 45.2, 40.9% and active: -2.53%, 3.33%"
same,growth,runs of 2010,"inactive: 34.4 (2×), 40.1, 32.7 (2×), 33.4, 33.1, 38.3, 29.9, 30.8, 44, 47, 47.2, 46.5, 43.1, 43.2, 43.6, 39, 31.6, 42.4 (2×), 52.6, 28.8, 33.5, 24.9, 25.1, 33.2, 32.6, 45.7, 30.3, 28.3, 45, 35.2, 21, 40, 38.5, 37, 37.9, 39.9, 41.5, 40.9, 35.1, 36.3, 47.1, 41.7, 40.6, 48 (2×), 45.9, 50.4, 47.3, 49.5, 44.9, 52.9, 34.6%"
same,growth,runs of 2011,"inactive: 51.8, 39.3, 46.5 (2×), 42.2, 49.2, 47.6, 43.6 (2×), 48.4, 36.2, 44.5, 48.2, 59.3, 50 (2×), 55.7, 53.6, 51.2 (2×), 48.6, 49.3, 45.5, 41.7, 39.9, 50.1, 49.8, 45.8, 39.1 (2×), 46, 32.1 (2×), 44.4, 35, 34.2, 38.4 (2×), 22.1, 27.5, 25.7, 39.6, 38.6, 31.3, 32.8, 32.5 (2×), 36.7, 34.6, 28.7, 28.9, 40.9 (2×), 38.9, 43.8, 47.3, 38.1, 40.7, 35.2, 34.7, 32, 34.1, 20%"
same,growth,runs of 2012,"inactive: 33.2, 21, 24.8 (2×), 33.4 (2×), 31.2, 32.5, 36.1, 42.1, 45.5, 23.9, 17.8, 24.2, 24.6 (2×), 28.5, 28.7, 20.8, 23.6 (2×), 24.3, 25.9, 33.3, 49.4, 35.5, 35.6, 33.1, 35.2, 32.1, 28.8, 35.1, 37.7, 26.3, 26.4, 10.3, 48.4, 53.4, 44.5, 40.5, 47.8, 57.5 (2×), 57.3, 62.1, 67.7, 65.5, 66.3, 71.6, 75.9, 56.5, 60.3, 56, 47.6, 60.7, 46.5, 62.5, 58.2, 47.7, 54.1, 48, 39.7, 41.6, 46.4, 51.8, 42.4, 59.8, 57.1, 55, 49.8, 62.3, 47.3%"
same,growth,runs of 2013,"inactive: 37.8, 47.3, 48.5, 37.7 (2×), 55.6, 40.7, 55.7, 42.1, 45.9, 62.8, 59.2, 57.6, 61.6, 50.7, 63.9, 51.6 (2×), 60, 56, 71.5, 59.7, 48.7, 66, 51.8 (2×), 60.6, 52.7, 55 (2×), 39.7, 42.6, 54.8, 43.3, 53.4, 41.6, 52.9, 48.9, 52.2, 42.8, 54, 33, 34.9, 63.7, 58.6, 50.2, 45, 50, 48.6, 46.8, 50.5, 51.4, 47, 52, 47.7, 39.3, 24.3, 28.4, 36.3, 37.5, 29.2, 26.4, 31.9, 29.3, 41, 39.6, 40.4, 36.2, 24.1, 29.1, 34.6, 33.2%"
same,growth,runs of 2014,"inactive: 33.7, 39.2, 35.6 (2×), 26.5 (2×), 28.1, 29.3, 32.9, 29.4, 30.5 (2×), 27.7, 33.6, 25.7, 43.5, 44.6, 40.3, 42.5, 34.7, 40.2, 36.8, 41.5, 43.1, 47.6, 38.3, 41.4, 20.6, 24.7, 31.4 (2×), 30.6, 27.2, 35, 33.8 (2×), 32.7, 30 (2×), 38.6, 33.4, 25.9 (2×), 39.8, 37.2 (2×), 31.7 (2×), 33.9, 32.3, 30.2 (2×), 24.6, 24.1, 29.1 (2×), 25.8, 30.8, 39.5, 34.4, 33.2, 22.7 (2×), 18.9, 39.1, 26.3, 29.2, 28.2, 38.1, 22.9, 31.6, 41.1, 31.5, 42.6, 37.3, 35.5, 27.9%"
same,growth,runs of 2015,"inactive: 33.8, 30.1 (2×), 36.6 (2×), 31.2, 29.1, 42.3, 34.1, 30.9 (3×), 37.3, 27.6, 41.1, 36.7, 36.8, 48.3, 32, 32.9, 27.2, 33.2 (2×), 34.7, 36.1, 33.7 (2×), 44.3, 41.2, 35.8, 40.9, 40.5, 32.1, 36.3 (2×), 28.8 (2×), 34.3 (3×), 28.3, 37.8, 19.4, 28.4, 28, 38.4, 42.1, 33, 19.8, 38.8, 29.6, 36.2, 43.3, 31.7, 37.9, 30.3, 41.4, 56.4, 25.7, 30.8, 22.1, 18.4, 35.9 (2×), 37.7 (2×), 23.2, 33.6 (2×), 45.8 (2×), 41.5 (2×), 28.6, 33.5, 39, 31.3, 47.5, 35.6, 40.2, 41.8%"
same,growth,runs of 2016,"inactive: 38.7, 35.9 (3×), 28.2, 34.2 (2×), 39.4, 43, 27.5 (2×), 35.8 (2×), 43.2, 31.4, 30.2, 45.1, 28.9 (2×), 41.4 (2×), 24.7, 36, 29.8, 36.7 (2×), 22.3, 33.8, 40.8, 33.7 (2×), 26, 34.9, 33, 35.2, 37 (2×), 30.4, 26.3, 31.5, 29.4, 30.6 (2×), 29.9, 36.3, 46.1 (2×), 34.3 (2×), 38.3, 42.9, 49, 53.1, 41.9, 37.9 (2×), 33.1, 36.5, 27.6, 36.8, 35.3, 39.5, 39.1, 33.9, 34.7, 38.5 (2×), 45, 39.9, 41.7, 37.7, 43.8 (2×), 44.5, 46, 48.8, 45.6, 47.7, 50, 44.1, 34.5, 36.1, 42.3, 35, 33.2, 37.8, 39, 39.2%"
same,growth,runs of 2017,"inactive: 39.3, 30.9, 33.3 (2×), 32.5 (2×), 33.8 (2×), 30.6, 30 (2×), 21.8, 29 (2×), 30.4 (2×), 29.4 (3×), 27.5 (2×), 32 (2×), 30.8 (2×), 32.2, 32.8, 30.2 (2×), 31, 28.7, 43.1, 49, 31.6 (2×), 36.6, 36, 34, 34.6 (2×), 24.1, 26.1, 34.9, 38.6, 26, 25.2, 29.9 (3×), 26.5, 41.3, 40.2, 27.6 (2×), 27.2, 26.6, 34.1, 35.9, 28.2 (2×), 25.1, 32.7, 37.5, 38.9, 43.6, 29.3, 27.4, 32.3, 25.9, 33.9, 34.3, 36.4, 34.5, 35.1 (2×), 29.6, 33.7, 34.8%"
same,growth,runs of 2018,"inactive: 27.9 (3×), 29.8, 24.5, 36.4, 33.6, 28.3, 30.4, 27.5, 34.2 (2×), 29, 37.6 (2×), 31.6, 36.1, 33.4, 38.5, 34.1 (2×), 43.5, 37.3, 36.3 (2×), 41, 29.1, 32.9, 31.7, 33.7, 32.7 (2×), 33.3, 35.3, 30, 34.3 (2×), 29.6, 32.3, 30.9, 39.9, 28.9, 26.6, 32.5, 33.8 (2×), 36.8, 30.3, 32.1, 39.6, 33.9, 38.7%"
same,growth,runs of 2019,"inactive: 22.3, 20, 30.4, 18.2, 20.5 (2×), 19.2, 26.3, 18, 20.3, 23.8, 22.4, 29.7, 28.3, 38.5, 30, 28.1, 26.2, 28.7, 37.9, 31.7, 24.6, 26.6, 32.1, 33.2, 30.1, 24.3, 22.2, 24.8, 35.7, 33.3, 31.3, 33.7, 28.4 (2×), 32.7, 31.4, 30.8, 25.8, 24.5, 26.7 (2×), 28.2, 29.6, 16.4%"
same,growth,runs of 2020,"inactive: 14.4, 17.5, 28.8, 23.6, 22.9, 25.8, 28.6, 29.6, 29.7, 23.2, 24.9, 28.7, 30.8, 29.2 (2×), 42.2, 31.4, 40.7, 39.8, 41, 32.1, 40.8, 44.1, 26.6%"
